Source: PubChem BioAssay AID652104 (National Center for Advancing Translational Sciences (NCATS), 2013)
The campaign covered roughly 410,000 compounds. About 7,200 (1.8%) were called active. The shares of active, inactive and inconclusive entries below differ from those in the screen. The call rests on the fitted dose curve; in most records, active means well fitted activation curve with a large enough effect; inconclusive means small, poorly fitted or top-dose-only effect, or another doubt; inactive means no such curve, though single readings can be large or run the other way. Potencies of inconclusive entries are left out as doubtful fits.

assay: qHTS of TDP-43 Inhibitors; conditions: TDP-43 expressing yeast growth rescue, BacTiter-Glo, 24 h; growth rescue (activation): at 46.1 µM (top of the series) unless noted; further: nearly all actives have a fitted effect of over 50% in size; on growth rescue (activation): % of control where 0% means no effect
Procedure, shortened: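 Cell-based yeast growth screen: TDP-43 expression induced in galactose, inoculum OD600=0.02 after raffinose pregrowth to mid-log. Read-out BacTiter-Glo luminescence at 24 hr, 30 deg C; inhibition of toxicity seen as signal increase.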
Potency means the concentration at half of the fitted maximal effect; tags describe the fitted curve by direction and shape.

Which Potency does the source give for `COC(=O)[C@@]1(Cc2ccc(F)cc2)[C@H]2c3cc(C(=O)N(C)C)n(Cc4cc(C)n(C)n4)c3C[C@H]2CN1C(=O)c1ccccc1` here?
The Potency was inconclusive [activator, partial curve, poor fit].

With `O=C(NCC1CCCO1)c1cc([N+](=O)[O-])ccc1N1CCC(Cc2ccccc2)CC1` (centres undefined) as the molecule, how does the Potency read?
The Potency was inconclusive [activator, partial curve].

Which Potency does the source give for `CSc1cccc(CNC(=O)C2CCC(=O)N(CCc3ccccc3)C2)c1` (centres undefined) here?
The Potency was inconclusive [activator, full curve, poor fit].

Which Potency does the source give for `Cc1cccc(N=Nc2ccc(O)c3ncccc23)c1` here?
The Potency was inconclusive [activator, single point].

Which Potency does the source give for `Cc1ccc(C(=O)NCC(c2cccs2)S(=O)(=O)c2cccs2)cc1` (centres undefined) here?
Its Potency is inconclusive [activator, single point].

For `S=c1[nH]nc(-c2ccccc2)n1Cc1ccccc1`, which Potency is on record?
The Potency was inconclusive [activator, single point].

With `CCOC(=O)CN1C(=O)S/C(=C/c2cc(C)n(C)c2C)C1=O` as the molecule, how does the Potency read?
Its Potency is inconclusive [activator, single point].

For `Cc1c(NC(=O)/C(C#N)=C/c2ccc(-c3cc(Cl)ccc3Cl)o2)c(=O)n(-c2ccccc2)n1C`, which Potency is on record?
Its Potency is “inactive”.

Which Potency does the source give for `COc1cccc(C(NC(C)=O)c2nc(-c3ccc(OC)nc3)cs2)c1` (centres undefined) here?
The Potency was “inactive”.

For `CC(=O)c1cccc(NC(=O)CCCOc2ccc(C)cc2)c1`, which Potency is on record?
Its Potency is inconclusive [activator, partial curve].

With `CC(=O)CSc1nc(N)c(C#N)c(-c2cccs2)c1C#N` as the molecule, how does the Potency read?
The Potency was “inactive”.

Which Potency does the source give for `COc1ccc(C(C)C)cc1S(=O)(=O)NCCc1c(C)[nH]c2ccc(C)cc12` here?
The Potency was inconclusive [activator, full curve].

For `CC(C)(C)OC(=O)N1CCC(c2c(C(=O)N3CCc4ccccc4C3)cnn2-c2ccc(F)cc2)CC1`, which Potency is on record?
Its Potency is “inactive”.

Which Potency does the source give for `O=C(OCc1ccccc1)c1ccc(NCc2cc(O)ccc2O)cc1` here?
Its Potency is inconclusive [activator, partial curve, poor fit].

With `COc1ccc(Nc2nc(N)c([N+](=O)[O-])c(N3CCCC3)n2)cc1` as the molecule, how does the Potency read?
Its Potency is inconclusive [activator, partial curve].

For `COc1ccc(N2CCN(C(=O)c3nc(SC)ncc3Cl)CC2)cc1`, which Potency is on record?
The Potency was active: 20 µM.

Which Potency does the source give for `O=C(CSc1n[nH]c(-c2ccccc2F)n1)Nc1cc(F)ccc1F` here?
Its Potency is inconclusive [activator, partial curve].

With `Cc1ccc(-c2noc(-c3nnn(CC(=O)Nc4cc(C)cc(C)c4)c3N)n2)cc1` as the molecule, how does the Potency read?
Its Potency is inconclusive [activator, full curve, poor fit].

Which Potency does the source give for `Brc1ccc(CSc2nnc(Cc3c[nH]c4ccccc34)o2)cc1` here?
Its Potency is active: 8.91 µM.

With `O=C(NCC(c1cccnc1)N1CCc2ccccc21)c1cccc(C(F)(F)F)c1` (centres undefined) as the molecule, how does the Potency read?
The Potency was inconclusive [activator, single point].

For `CCN1C(=O)CC(N2CCC(Nc3ccc(OC)cc3)CC2)C1=O` (centres undefined), which Potency is on record?
Its Potency is “inactive”.

Which Potency does the source give for `CC1=Nc2cc(C(=O)O)ccc2Sc2ccc(Br)cc21` here?
Its Potency is active: 35.5 µM.

For `CC(NC(=O)CCSCc1ccccc1F)c1ccccc1` (centres undefined), which Potency is on record?
The Potency was inconclusive [activator, partial curve].

Which Potency does the source give for `Cc1csc(NC(=O)CSc2ccc(-c3ccccn3)nn2)n1` here?
The Potency was inconclusive [activator, single point].

Which Potency does the source give for `c1ccc2c3c([nH]c2c1)-c1[nH]ncc1CC3` here?
Its Potency is inconclusive [activator, single point].

For `CC(C)(C)c1cc(NC(=O)COC(=O)c2ccccc2)n(-c2ccccc2)n1`, which Potency is on record?
Its Potency is inconclusive [activator, single point].

With `Cc1ccc(S(=O)(=O)NCc2c(Cl)cccc2Oc2ccccc2)cc1` as the molecule, how does the Potency read?
The Potency was active: 20 µM.

Which Potency does the source give for `Cc1ccc(N(C)C(=O)c2cnc(N3CCOCC3)c3ccccc23)cc1C` here?
Its Potency is inconclusive [activator, partial curve].

Which Potency does the source give for `O=c1c2c3n(c(=S)nc2[nH]n1-c1ccccc1)CCCCC3` here?
The Potency was inconclusive [activator, single point].

For `CCC(C)(C)c1ccc(Oc2ccc(N)cc2)cc1`, which Potency is on record?
The Potency was inconclusive [activator, single point].

For `CC(C)C[C@@H]1COc2cc(N3CCSCC3)ccc2S(=O)(=O)N1`, which Potency is on record?
Its Potency is inconclusive [activator, partial curve].

With `Cc1ccc(F)cc1NC(=O)c1c(-c2ccccc2)noc1C` as the molecule, how does the Potency read?
Its Potency is active: 20 µM.

For `Cc1ccc(O)c(-c2cc(-c3cccc(F)c3)n[nH]2)c1`, which Potency is on record?
Its Potency is inconclusive [activator, partial curve].

For `Cc1ccc(-c2csc(-c3ccncc3)n2)cc1`, which Potency is on record?
The Potency was inconclusive [activator, partial curve].

For `O=C(Nc1ccccc1N1CCCC1)c1ccc(F)c(S(=O)(=O)N2CCOCC2)c1`, which Potency is on record?
Its Potency is “inactive”.

Which Potency does the source give for `CCc1ccc(NC(=O)CCn2nc(-c3ccccc3OC)c3c(C)cc(C)nc32)cc1` here?
The Potency was inconclusive [activator, single point].

For `CCOC(=O)N1CCN(C(=O)c2cc3c(-c4cccc(OC)c4)nn(C)c3s2)CC1`, which Potency is on record?
The Potency was inconclusive [activator, single point].

Which Potency does the source give for `CC(C)Cc1ccc(-c2cc(=O)[nH][nH]2)cc1` here?
Its Potency is active: 20 µM.

Which Potency does the source give for `COc1ccc(OC)c(NC(=O)CSc2nnc3ccc4ccccc4n23)c1` here?
Its Potency is “inactive”.

With `COc1ccc(CCNc2nc(-c3sc(C)nc3C)cs2)cc1OC` as the molecule, how does the Potency read?
The Potency was active: 22.4 µM.

With `Cc1cc(C)cc(NCc2cc3c(cc2[N+](=O)[O-])OCO3)c1` as the molecule, how does the Potency read?
Its Potency is inconclusive [activator, single point].

Which Potency does the source give for `COc1ccc(-c2n[nH]c(=S)o2)c(OC)c1` here?
Its Potency is inconclusive [activator, partial curve].

For `Brc1ccccc1-c1nnc(COc2cccc3cccnc23)o1`, which Potency is on record?
Its Potency is inconclusive [activator, partial curve].

With `Cc1ccc(-n2ncc(C(=O)NCc3cccs3)c2C2CCN(C(=O)OC(C)(C)C)CC2)c(C)c1` as the molecule, how does the Potency read?
The Potency was inconclusive [activator, partial curve].

Which Potency does the source give for `COc1cc(/C=C/c2cc(OC(C)=O)c3ccccc3n2)c(OC(C)=O)c([N+](=O)[O-])c1` here?
The Potency was inconclusive [activator, single point].

Which Potency does the source give for `O=C(NCc1cccs1)c1ccc(-c2ccc(F)c(F)c2)c2ccoc12` here?
Its Potency is inconclusive [activator, partial curve, poor fit].

Which Potency does the source give for `O=C(c1ccc(N2CCN(C(=O)c3ccc(F)c(F)c3)CC2)cc1)c1cccc(F)c1` here?
Its Potency is inconclusive [activator, partial curve].

Which Potency does the source give for `CCCC[C@@H]1CNC(=O)C(=O)N1CCCC` here?
Its Potency is “inactive”.

Which Potency does the source give for `CCOc1ccc2nc(N/C(N)=N/C(=S)Nc3ccc(OC)cc3)nc(C)c2c1` here?
Its Potency is inconclusive [activator, partial curve].

For `O=C(NCC1CCCO1)c1ccccc1NC(=O)c1cccc2ccccc12` (centres undefined), which Potency is on record?
The Potency was inconclusive [activator, partial curve].

With `Cc1ccccc1-c1noc(-c2ccc(O)cc2)n1` as the molecule, how does the growth rescue (activation) read?
The growth rescue (activation) was inconclusive: -78.1% [activator].

With `COc1ccc(C2=Cc3ccc(OC(C)=O)cc3OC2)cc1` as the molecule, how does the Potency read?
Its Potency is inconclusive [activator, partial curve].

Which Potency does the source give for `OC(c1ccccc1)(c1ccccc1)C1CCN(C(=S)Nc2ccc(F)cc2)CC1` here?
The Potency was inconclusive [activator, single point].

For `CC(C)c1ccc(NS(=O)(=O)c2ccc(Cl)nc2)cc1`, which Potency is on record?
The Potency was inconclusive [activator, single point].

With `COc1cccc(CN(C)C(=O)c2ccc(N3CCCC3)c([N+](=O)[O-])c2)c1` as the molecule, how does the Potency read?
The Potency was active: 20 µM.

Which Potency does the source give for `CCc1nc2ccc(C(=O)Nc3ccc(OC)c(OC)c3)cn2c1N(C)C(=O)Cc1ccccc1` here?
Its Potency is inconclusive [activator, full curve, poor fit].

For `COc1cccc(-c2cc3nc(NCc4cccnc4)n(C)c(=O)c3s2)c1`, which Potency is on record?
Its Potency is “inactive”.

Which Potency does the source give for `Cc1ccc2nc(N3CCC(C(=O)N4CCN(c5cccc(Cl)c5)CC4)CC3)[nH]c2c1` here?
Its Potency is inconclusive [activator, single point].

For `COc1ccc(CCNC(=O)CSCc2ccc(Br)cc2)cc1OC`, which Potency is on record?
Its Potency is inconclusive [activator, partial curve, poor fit].

With `Cc1ccc(C)c(NC(=S)NNc2ccc(F)cc2F)c1` as the molecule, how does the Potency read?
Its Potency is active: 12.6 µM.

Which Potency does the source give for `Cc1ccc(F)cc1C(=O)N1CCCC(c2cc(C(=O)Nc3ccccc3)no2)C1` (centres undefined) here?
The Potency was active: 35.5 µM.

Which Potency does the source give for `Cc1onc(-c2ccccc2Cl)c1C(O)c1ccc(F)cc1` (centres undefined) here?
Its Potency is inconclusive [activator, partial curve].

For `O=C(Cc1c(F)cccc1Cl)OCC(=O)N1CCc2ccccc21`, which Potency is on record?
The Potency was active: 11.2 µM.

With `COC(=O)CSc1nc2c(c(-c3ccco3)c1C#N)CCCC2` as the molecule, how does the Potency read?
The Potency was “inactive”.

With `COc1ccc(OC)c(-c2csc(NC(=O)Cc3ccccc3)n2)c1` as the molecule, how does the Potency read?
The Potency was inconclusive [activator, single point].

With `COc1ccc(Br)cc1CNC(=O)c1cc2n(n1)CCCN(Cc1ccc(C)cc1)C2=O` as the molecule, how does the Potency read?
Its Potency is inconclusive [activator, partial curve].

With `Cc1cc(Cl)ccc1NNC(=O)CCc1ccccc1` as the molecule, how does the Potency read?
The Potency was active: 12.6 µM.

For `CCOC(=O)Cc1nn(Cc2ccccc2)c(=O)c2ccccc12`, which Potency is on record?
Its Potency is inconclusive [activator, partial curve].

For `CC(C)(C)NC(=O)C[C@H]1C[C@H](C(=O)N2CCOCC2)[C@@]2(CCC3CCCC3)c3[nH]c4ccc(Cl)cc4c3CCN2C1=O`, which Potency is on record?
The Potency was inconclusive [activator, single point].
